Measurements published in article PMC9376112, “XPC–PARP complexes engage the chromatin remodeler ALC1 to catalyze global genome DNA damage repair” (Nature Communications, 2022).
Results are given in words; binding and its absence hold for the method and conditions named. Binding seen in cells or lysates may run through a third protein. Some results given as binding are weak or reduced against the parent protein; the word gives no strength.

By UniProt entry, the sequences of proteins in these tests, tags left out. Where a name states a change or a piece, a line headed by the entry shows the natural chain unless it says otherwise. Chains listed by the source or under a name are the forms on record and can include a tag or linker. Residues count along the entry.
UniProt Q9UGN5: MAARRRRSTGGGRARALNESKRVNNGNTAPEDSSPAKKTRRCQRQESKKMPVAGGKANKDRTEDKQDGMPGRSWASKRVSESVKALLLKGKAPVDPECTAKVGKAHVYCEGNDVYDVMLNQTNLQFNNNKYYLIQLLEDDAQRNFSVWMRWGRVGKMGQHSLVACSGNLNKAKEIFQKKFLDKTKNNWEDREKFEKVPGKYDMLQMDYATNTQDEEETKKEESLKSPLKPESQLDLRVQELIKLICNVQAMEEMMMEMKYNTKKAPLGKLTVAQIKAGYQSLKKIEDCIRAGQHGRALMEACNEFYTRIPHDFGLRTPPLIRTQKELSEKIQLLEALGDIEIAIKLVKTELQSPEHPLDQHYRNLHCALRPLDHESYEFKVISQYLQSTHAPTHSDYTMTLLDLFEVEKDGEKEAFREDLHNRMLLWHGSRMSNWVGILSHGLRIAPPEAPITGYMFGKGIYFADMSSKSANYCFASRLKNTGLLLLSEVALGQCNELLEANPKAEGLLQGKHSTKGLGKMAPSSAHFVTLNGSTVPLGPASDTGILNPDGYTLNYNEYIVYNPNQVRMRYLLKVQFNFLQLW
GFP-PARP2 (Q9UGN5-2, form named): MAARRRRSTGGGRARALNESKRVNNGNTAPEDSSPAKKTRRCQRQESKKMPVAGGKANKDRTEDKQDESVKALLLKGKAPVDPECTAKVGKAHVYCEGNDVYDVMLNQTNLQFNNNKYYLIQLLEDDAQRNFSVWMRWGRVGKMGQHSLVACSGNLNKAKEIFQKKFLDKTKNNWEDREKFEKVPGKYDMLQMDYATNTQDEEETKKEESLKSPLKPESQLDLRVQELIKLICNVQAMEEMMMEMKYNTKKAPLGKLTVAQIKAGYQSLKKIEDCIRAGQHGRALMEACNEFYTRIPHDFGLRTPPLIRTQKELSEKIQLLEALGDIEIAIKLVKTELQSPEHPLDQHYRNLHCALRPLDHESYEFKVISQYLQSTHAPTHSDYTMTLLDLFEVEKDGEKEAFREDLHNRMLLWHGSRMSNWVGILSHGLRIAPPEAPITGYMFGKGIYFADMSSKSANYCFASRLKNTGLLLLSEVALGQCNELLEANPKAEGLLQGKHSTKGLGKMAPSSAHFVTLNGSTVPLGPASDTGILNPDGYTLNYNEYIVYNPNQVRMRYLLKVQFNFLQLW
UniProt Q86WJ1: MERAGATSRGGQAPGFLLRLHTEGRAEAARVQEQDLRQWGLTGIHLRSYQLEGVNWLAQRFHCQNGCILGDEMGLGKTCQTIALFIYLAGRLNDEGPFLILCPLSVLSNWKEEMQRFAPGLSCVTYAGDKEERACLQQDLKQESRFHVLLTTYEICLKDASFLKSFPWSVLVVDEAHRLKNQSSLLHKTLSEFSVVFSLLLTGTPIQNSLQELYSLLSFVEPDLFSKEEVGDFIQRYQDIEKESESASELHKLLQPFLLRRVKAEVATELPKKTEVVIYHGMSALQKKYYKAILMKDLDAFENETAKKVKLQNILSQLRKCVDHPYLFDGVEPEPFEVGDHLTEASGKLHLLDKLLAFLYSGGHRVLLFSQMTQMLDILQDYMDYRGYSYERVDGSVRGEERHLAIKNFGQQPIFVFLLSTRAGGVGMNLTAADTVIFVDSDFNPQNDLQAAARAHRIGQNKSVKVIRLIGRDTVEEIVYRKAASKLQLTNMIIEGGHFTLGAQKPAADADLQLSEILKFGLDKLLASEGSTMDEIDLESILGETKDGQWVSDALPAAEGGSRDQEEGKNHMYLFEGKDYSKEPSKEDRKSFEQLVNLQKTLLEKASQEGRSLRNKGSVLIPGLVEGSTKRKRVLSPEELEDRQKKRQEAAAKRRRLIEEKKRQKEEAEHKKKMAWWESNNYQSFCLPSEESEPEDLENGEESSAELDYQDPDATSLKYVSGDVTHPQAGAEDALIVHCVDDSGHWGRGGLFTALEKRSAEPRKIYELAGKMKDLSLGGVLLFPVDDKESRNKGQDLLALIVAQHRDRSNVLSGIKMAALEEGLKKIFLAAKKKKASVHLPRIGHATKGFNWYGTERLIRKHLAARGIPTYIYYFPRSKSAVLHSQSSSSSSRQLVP
GFP-ALC1 Δmacrodomain: residues 1-726 of Q86WJ1
UniProt Q01831: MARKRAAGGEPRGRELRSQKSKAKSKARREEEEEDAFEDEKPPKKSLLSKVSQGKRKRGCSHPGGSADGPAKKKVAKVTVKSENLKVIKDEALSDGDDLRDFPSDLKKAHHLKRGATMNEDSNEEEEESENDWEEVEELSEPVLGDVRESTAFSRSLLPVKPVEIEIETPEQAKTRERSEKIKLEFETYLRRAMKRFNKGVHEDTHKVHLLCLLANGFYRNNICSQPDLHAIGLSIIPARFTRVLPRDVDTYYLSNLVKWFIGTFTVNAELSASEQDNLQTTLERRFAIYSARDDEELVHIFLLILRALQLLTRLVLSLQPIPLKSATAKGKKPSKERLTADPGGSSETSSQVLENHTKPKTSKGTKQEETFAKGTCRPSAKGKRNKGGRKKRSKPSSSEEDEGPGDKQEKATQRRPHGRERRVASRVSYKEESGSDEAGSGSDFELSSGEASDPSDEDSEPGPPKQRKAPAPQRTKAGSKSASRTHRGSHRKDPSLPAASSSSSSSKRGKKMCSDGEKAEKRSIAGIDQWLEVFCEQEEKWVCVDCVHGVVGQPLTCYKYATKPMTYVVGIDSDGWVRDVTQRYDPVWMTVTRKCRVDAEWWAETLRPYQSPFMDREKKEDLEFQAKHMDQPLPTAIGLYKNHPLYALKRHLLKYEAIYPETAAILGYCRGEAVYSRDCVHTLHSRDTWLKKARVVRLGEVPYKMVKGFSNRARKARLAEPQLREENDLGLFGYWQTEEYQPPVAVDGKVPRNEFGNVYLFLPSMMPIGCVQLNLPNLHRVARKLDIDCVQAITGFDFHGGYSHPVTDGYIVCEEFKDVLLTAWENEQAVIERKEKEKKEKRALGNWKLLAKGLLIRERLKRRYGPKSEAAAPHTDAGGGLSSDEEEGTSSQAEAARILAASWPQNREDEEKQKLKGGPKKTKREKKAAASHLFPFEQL
UniProt P09874: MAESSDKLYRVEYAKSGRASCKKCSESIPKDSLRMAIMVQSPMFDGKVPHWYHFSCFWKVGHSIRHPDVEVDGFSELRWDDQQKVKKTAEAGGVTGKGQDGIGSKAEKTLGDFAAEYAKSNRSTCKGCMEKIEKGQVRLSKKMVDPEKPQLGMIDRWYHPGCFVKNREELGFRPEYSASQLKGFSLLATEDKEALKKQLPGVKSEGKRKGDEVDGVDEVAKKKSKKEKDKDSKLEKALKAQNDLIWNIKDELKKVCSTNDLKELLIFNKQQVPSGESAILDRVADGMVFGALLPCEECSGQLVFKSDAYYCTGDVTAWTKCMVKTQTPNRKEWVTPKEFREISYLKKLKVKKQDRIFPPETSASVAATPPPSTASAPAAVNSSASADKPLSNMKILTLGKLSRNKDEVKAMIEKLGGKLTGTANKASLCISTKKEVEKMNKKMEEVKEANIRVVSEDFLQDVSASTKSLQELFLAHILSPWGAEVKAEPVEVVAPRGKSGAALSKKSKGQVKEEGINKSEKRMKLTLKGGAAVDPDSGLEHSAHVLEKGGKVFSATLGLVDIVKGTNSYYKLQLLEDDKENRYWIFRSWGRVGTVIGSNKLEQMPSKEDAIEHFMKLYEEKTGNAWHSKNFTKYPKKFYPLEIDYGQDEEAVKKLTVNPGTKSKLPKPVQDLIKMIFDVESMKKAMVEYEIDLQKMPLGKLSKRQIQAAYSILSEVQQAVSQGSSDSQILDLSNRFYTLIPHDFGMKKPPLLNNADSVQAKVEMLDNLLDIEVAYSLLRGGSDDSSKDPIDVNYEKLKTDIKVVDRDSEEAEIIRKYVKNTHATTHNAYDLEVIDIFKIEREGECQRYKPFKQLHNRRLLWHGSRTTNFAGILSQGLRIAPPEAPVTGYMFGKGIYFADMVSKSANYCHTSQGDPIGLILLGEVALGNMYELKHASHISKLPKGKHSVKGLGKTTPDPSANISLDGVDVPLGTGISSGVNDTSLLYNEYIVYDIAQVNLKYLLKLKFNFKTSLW

Experiments:
GFP-PARP2 = molecular target: T1, GFP-PARP2 (UniProt Q9UGN5-2 1-570); assay: co-IP; GFP-Trap IP of PARP1-GFP or GFP-PARP2 from U2OS (FRT) WT lysate (EBC-150, 150 mM NaCl, 0.5% NP-40, Benzonase), western blot; with and without UV-C (20 J/m^2, 1 h)
T1 construct: also called PARP2-GFP; source: U2OS (FRT) WT, stably expressed (Flp-In, doxycycline-inducible), in lysate; not shown: GFP, N-terminal, kept

GFP-ALC1 Δmacrodomain = GFP-ALC1 Δmacrodomain (UniProt Q86WJ1); assay: co-IP; GFP-Trap IP of GFP-ALC1 WT, E175Q or Δmacrodomain from U2OS (FRT) ALC1-KO lysate (EBC-150, 150 mM NaCl, 0.5% NP-40, Benzonase), western blot; with and without UV-C (20 J/m^2, 1 h)
GFP-ALC1 E175Q = GFP-ALC1 E175Q (UniProt Q86WJ1); assay: as above
GFP-ALC1 WT = GFP-ALC1 WT (UniProt Q86WJ1); assay: as above
XPC-GFP = XPC-GFP (UniProt Q01831); assay: co-IP; GFP-Trap IP of XPC-GFP from U2OS (FRT) XPC-KO lysate (EBC-150: 50 mM Tris pH 7.5, 150 mM NaCl, 0.5% NP-40, Benzonase), western blot; with and without UV-C (20 J/m^2, 1 h) and olaparib (10 uM)

With “ALC1 (endogenous) (from UniProt Q86WJ1 1-897) (enzyme)” the binding (GFP-PARP2) was “binds”.

For “PARP1 (endogenous) (from UniProt P09874 1-1014) (enzyme)”, the binding (GFP-ALC1 Δmacrodomain) was “no binding”, the binding (GFP-ALC1 E175Q) was “binds” and the binding (GFP-ALC1 WT) was “binds”. For the same substance, the binding (XPC-GFP) was “binds”.

For “PARP2 (endogenous) (from UniProt Q9UGN5 1-583) (enzyme)”, the binding (GFP-ALC1 Δmacrodomain) was “no binding”, the binding (GFP-ALC1 E175Q) was “binds” and the binding (GFP-ALC1 WT) was “binds”. For the same substance, the binding (XPC-GFP) was “binds”.

For “XPC (endogenous) (from UniProt Q01831 1-940)”, the binding (GFP-PARP2) was “binds”.
